Our source for the binding values is article PMC5343593.

Sequences of proteins named here, by UniProt entry; tags and fusion partners are left off.
UniProt Q63HN8: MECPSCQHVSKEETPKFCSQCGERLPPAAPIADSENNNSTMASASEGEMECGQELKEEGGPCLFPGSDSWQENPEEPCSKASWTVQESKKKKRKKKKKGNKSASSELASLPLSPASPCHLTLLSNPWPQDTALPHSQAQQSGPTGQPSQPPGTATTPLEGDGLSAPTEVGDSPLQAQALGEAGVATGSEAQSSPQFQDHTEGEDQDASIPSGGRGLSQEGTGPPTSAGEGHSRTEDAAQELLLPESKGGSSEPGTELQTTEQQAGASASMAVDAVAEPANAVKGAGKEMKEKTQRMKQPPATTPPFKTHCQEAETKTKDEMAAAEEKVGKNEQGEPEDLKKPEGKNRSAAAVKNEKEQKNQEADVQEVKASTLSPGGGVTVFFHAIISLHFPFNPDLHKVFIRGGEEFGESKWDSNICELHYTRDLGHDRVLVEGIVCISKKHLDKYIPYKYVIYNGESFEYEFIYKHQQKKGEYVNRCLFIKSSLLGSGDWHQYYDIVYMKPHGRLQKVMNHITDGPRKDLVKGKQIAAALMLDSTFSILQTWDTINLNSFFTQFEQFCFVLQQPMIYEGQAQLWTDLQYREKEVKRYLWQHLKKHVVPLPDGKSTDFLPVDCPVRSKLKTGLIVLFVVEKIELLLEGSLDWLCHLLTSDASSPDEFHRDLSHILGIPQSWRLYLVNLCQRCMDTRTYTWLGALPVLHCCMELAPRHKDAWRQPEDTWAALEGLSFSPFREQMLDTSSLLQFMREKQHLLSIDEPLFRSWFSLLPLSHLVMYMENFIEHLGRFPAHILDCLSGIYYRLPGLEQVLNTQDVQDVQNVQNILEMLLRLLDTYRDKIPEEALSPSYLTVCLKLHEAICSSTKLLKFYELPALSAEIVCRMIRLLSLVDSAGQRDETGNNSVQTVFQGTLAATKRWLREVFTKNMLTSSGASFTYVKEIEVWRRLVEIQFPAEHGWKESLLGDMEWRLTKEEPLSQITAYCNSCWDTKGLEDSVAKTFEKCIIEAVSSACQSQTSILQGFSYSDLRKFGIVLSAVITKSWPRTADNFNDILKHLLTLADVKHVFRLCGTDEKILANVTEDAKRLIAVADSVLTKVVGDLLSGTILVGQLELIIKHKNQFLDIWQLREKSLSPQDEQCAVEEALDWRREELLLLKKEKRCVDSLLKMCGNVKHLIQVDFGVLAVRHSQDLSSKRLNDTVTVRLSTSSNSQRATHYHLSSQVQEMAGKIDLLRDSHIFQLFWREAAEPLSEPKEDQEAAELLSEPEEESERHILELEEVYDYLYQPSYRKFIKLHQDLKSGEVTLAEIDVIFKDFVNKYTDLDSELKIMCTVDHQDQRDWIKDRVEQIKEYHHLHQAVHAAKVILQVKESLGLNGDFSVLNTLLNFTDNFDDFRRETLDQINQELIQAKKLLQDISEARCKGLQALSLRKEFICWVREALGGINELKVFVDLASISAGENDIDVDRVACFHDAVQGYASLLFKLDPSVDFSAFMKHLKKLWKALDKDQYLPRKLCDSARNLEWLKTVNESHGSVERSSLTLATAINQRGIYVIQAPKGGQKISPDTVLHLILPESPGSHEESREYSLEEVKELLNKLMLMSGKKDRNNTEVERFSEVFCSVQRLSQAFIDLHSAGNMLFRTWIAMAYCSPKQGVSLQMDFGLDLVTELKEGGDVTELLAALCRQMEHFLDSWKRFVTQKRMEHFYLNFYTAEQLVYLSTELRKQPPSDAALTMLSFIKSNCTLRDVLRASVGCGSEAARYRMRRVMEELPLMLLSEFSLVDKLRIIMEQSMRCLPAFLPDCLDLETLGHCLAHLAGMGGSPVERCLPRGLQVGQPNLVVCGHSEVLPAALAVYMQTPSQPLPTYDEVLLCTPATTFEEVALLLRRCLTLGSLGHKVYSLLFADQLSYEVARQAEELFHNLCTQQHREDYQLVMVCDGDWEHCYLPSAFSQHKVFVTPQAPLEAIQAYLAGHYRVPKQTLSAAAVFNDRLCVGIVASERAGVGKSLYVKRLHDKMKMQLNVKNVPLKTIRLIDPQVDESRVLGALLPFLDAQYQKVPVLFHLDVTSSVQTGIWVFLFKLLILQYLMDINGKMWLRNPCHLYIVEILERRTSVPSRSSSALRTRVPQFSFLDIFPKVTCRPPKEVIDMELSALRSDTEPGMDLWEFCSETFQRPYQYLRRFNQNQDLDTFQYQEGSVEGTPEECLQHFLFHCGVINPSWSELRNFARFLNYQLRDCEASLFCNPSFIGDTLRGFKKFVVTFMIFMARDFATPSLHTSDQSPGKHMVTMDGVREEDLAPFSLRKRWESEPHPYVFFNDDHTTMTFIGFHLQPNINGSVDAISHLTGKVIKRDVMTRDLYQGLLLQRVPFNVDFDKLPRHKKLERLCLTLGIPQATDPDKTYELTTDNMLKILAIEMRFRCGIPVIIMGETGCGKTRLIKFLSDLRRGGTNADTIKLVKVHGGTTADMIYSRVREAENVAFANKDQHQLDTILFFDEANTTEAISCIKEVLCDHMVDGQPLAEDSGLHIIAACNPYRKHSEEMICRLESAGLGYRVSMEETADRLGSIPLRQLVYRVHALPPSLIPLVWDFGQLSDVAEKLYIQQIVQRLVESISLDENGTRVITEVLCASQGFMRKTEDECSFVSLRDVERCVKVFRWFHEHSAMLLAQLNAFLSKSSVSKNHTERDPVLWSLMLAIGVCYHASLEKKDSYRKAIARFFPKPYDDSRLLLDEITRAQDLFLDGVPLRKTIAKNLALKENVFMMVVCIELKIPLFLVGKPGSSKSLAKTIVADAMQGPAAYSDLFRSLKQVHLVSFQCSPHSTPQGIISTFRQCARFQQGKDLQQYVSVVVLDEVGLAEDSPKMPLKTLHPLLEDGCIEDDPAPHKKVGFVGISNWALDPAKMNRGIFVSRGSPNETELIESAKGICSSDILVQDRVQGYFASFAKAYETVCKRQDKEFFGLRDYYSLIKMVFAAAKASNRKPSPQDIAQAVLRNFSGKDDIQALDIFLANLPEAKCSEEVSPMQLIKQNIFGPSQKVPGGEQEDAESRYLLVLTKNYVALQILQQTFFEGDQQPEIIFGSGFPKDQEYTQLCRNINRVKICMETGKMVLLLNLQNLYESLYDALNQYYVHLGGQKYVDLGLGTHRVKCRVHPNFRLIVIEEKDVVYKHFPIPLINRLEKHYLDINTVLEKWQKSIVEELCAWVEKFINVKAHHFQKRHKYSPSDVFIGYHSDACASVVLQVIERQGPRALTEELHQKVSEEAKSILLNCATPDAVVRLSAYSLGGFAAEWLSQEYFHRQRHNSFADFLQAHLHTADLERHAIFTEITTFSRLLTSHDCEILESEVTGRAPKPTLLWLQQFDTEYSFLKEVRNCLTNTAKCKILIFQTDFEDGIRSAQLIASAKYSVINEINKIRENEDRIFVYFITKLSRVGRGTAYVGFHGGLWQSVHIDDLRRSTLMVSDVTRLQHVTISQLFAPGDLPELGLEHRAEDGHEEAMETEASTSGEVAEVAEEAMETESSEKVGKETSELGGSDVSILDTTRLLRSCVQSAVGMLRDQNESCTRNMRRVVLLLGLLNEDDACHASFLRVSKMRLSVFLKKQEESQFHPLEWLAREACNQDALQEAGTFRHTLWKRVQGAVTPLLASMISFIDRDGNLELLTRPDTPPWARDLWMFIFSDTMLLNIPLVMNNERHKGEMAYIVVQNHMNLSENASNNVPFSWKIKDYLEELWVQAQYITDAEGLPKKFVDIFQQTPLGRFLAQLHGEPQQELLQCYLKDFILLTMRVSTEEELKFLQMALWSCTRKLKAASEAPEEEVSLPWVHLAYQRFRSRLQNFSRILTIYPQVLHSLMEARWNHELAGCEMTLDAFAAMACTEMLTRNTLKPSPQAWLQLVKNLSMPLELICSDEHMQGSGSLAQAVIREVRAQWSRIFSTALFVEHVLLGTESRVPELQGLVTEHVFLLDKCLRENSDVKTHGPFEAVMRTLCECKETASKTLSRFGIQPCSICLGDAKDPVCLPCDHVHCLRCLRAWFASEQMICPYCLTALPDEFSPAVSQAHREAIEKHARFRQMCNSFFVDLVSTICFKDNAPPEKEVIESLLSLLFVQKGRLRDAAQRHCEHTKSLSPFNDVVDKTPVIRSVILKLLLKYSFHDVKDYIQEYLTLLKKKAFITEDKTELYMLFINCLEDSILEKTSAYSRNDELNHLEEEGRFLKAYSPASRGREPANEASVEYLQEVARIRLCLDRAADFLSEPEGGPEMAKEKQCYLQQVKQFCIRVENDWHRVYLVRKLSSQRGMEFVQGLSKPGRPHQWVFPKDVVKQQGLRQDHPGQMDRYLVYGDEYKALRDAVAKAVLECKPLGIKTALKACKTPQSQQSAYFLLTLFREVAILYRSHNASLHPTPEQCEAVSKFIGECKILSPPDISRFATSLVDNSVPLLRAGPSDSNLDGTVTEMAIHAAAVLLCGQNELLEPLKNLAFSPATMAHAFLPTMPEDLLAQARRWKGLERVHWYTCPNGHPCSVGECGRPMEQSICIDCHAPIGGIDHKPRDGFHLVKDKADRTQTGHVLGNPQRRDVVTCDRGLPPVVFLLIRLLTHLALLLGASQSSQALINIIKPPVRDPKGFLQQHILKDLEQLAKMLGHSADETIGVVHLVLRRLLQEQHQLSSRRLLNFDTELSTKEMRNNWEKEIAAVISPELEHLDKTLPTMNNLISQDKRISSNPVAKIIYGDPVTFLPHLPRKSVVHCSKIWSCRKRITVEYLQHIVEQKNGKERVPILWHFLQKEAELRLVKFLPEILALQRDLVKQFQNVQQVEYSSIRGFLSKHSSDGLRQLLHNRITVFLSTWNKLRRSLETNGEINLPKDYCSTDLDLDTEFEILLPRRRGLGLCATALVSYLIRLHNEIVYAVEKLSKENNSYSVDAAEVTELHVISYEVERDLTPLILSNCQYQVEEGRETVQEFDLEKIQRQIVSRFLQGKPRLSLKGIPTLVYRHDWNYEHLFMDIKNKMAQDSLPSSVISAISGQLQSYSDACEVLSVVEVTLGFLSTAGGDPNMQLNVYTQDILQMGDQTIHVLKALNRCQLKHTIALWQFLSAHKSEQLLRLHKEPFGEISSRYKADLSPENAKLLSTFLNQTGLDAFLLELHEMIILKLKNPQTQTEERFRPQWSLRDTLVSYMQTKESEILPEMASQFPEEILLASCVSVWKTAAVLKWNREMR

Test [1] addresses T1, USP15L-3FLAG (long isoform of USP15 with three tandem FLAG tags at the C-terminus) (human) (UniProt Q9Y4E8).
T1 sequence: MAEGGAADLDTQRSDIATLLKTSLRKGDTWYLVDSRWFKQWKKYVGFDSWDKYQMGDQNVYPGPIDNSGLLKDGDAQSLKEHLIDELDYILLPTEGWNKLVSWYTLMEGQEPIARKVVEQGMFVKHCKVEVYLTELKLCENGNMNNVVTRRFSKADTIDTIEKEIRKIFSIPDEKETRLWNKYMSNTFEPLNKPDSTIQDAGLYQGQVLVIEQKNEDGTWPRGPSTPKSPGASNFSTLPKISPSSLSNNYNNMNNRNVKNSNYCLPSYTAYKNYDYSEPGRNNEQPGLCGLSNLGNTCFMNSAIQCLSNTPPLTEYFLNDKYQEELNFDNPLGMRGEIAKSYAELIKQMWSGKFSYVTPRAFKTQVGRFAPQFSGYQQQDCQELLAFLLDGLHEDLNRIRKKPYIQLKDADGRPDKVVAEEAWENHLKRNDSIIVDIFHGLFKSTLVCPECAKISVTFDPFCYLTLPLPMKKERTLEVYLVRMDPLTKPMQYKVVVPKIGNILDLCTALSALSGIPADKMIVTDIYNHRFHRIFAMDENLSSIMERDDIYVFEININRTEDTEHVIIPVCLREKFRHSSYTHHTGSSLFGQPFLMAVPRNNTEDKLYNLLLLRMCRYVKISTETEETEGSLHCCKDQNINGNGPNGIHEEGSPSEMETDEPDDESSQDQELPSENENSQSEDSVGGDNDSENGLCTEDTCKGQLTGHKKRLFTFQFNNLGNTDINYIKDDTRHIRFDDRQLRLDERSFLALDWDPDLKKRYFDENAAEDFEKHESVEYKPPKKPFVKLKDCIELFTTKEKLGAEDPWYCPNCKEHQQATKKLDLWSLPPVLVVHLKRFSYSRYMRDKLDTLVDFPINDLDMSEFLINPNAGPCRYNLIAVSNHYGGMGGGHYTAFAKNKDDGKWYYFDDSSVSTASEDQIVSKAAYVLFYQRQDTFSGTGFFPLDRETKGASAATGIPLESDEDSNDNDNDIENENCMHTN
Nature of the test: co-IP; FLAG/3FLAG-tagged bait transiently expressed in HEK293T; lysis in HEPES buffer (150 mM NaCl, 20 mM HEPES-NaOH pH 7.4) with digitonin; anti-FLAG M2 agarose beads 1 h; endogenous mysterin detected by immunoblot with anti-mysterin antibody.

The target of the next test is T2, USP15L ΔC2-3FLAG (human) (UniProt Q9Y4E8).
T2 sequence: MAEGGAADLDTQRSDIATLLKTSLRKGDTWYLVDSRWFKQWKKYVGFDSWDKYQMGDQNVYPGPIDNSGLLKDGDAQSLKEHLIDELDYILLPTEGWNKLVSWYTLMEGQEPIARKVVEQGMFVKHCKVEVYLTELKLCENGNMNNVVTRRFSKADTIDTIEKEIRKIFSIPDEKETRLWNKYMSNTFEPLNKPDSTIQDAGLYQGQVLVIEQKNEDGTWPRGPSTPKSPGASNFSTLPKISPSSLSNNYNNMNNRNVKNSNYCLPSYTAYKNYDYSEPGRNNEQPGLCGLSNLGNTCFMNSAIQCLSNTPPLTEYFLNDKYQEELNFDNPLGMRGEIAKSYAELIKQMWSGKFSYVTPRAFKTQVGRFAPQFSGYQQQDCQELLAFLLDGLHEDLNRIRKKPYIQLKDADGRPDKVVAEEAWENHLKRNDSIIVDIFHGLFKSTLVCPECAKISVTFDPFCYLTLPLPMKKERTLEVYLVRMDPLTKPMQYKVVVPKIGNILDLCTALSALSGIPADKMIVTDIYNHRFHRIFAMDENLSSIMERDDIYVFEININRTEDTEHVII
The description is as above.

The target in another test is T3, USP15L ΔC1-3FLAG (human) (UniProt Q9Y4E8).
T3 sequence: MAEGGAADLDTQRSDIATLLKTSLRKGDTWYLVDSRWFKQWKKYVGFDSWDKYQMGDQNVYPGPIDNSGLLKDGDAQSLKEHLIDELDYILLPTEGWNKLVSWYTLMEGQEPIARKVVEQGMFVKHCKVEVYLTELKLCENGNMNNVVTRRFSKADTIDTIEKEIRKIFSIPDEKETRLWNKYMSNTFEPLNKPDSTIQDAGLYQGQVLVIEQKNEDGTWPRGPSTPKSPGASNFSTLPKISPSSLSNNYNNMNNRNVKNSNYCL
The description is as above.

For the next test, the target named is T4, USP15L ΔN1-3FLAG (human) (UniProt Q9Y4E8).
T4 sequence: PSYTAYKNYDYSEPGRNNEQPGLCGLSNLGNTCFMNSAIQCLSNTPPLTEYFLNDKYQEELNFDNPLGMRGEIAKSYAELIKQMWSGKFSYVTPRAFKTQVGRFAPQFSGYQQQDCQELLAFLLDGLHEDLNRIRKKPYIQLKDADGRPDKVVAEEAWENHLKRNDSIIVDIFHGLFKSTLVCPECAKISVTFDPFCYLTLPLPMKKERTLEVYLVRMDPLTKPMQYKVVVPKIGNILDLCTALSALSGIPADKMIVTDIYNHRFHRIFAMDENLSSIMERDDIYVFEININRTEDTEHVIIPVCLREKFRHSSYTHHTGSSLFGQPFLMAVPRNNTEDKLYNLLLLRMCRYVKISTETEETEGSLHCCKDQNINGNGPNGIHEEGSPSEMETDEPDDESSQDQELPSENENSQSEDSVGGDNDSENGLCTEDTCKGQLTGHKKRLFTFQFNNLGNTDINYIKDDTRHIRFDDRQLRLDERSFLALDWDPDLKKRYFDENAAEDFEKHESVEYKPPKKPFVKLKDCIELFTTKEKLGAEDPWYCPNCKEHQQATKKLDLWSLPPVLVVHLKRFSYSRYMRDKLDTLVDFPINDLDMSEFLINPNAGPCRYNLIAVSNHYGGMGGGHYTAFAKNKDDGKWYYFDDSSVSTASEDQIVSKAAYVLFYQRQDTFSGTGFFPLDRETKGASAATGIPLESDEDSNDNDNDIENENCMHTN
The description is as above.

The target of the next test is T5, USP15L ΔN2-3FLAG (human) (UniProt Q9Y4E8).
T5 sequence: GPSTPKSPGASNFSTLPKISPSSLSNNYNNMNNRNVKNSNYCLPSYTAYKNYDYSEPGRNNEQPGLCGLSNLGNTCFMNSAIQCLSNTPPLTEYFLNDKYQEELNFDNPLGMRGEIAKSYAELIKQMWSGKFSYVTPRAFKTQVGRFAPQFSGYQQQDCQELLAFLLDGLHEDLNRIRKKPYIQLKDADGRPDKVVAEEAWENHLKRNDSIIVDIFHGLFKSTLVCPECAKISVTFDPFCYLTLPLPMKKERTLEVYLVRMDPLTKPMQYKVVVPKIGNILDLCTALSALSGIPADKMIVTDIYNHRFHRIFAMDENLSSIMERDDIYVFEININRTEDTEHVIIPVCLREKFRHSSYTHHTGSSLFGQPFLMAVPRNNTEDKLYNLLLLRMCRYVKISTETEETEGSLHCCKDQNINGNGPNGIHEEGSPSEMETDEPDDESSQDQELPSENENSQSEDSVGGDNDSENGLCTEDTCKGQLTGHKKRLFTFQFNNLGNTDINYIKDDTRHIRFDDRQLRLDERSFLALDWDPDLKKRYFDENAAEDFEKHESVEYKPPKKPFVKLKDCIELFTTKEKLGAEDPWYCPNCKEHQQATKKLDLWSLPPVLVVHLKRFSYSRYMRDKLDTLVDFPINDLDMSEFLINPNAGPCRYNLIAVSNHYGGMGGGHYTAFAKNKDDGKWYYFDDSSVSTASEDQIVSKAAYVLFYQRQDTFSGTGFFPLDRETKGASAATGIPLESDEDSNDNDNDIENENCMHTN
The test is described as above.

A further test deals with T6, USP15L ΔN3-3FLAG (human) (UniProt Q9Y4E8).
T6 sequence: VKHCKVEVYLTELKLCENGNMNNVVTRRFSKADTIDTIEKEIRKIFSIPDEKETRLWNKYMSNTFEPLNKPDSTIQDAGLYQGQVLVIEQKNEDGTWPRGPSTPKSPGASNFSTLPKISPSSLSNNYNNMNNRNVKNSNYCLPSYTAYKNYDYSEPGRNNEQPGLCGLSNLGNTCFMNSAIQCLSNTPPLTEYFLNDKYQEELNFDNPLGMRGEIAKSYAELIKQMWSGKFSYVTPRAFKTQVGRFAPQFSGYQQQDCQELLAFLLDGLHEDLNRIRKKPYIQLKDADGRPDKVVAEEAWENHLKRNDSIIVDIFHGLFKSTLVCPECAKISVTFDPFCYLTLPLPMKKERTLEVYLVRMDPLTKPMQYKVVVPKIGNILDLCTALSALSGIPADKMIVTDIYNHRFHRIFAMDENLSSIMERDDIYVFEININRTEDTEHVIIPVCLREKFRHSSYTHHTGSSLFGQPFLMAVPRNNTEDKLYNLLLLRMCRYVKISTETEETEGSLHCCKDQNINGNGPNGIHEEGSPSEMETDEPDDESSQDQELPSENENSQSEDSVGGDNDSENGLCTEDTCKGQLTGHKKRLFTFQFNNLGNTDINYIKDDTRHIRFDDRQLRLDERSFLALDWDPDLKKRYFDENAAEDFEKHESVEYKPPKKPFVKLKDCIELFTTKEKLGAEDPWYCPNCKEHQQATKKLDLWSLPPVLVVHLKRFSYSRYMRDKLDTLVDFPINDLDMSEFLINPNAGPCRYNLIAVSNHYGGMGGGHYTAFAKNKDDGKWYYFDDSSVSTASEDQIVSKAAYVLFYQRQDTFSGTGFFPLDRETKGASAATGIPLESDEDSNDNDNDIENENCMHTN
The description is as above.

Test [2] addresses LYAR harboring a FLAG epitope tag at its C terminus (human) (UniProt Q9NX58). Described as above.
For test [3], the target named is T7, USP15L-Myc (long isoform of USP15 with a Myc epitope tag at the C-terminus) (human) (UniProt Q9Y4E8).
T7 sequence: T1 sequence
Nature of the test: co-IP; Myc-tagged USP15L or mutant transiently expressed in HEK293T; digitonin HEPES buffer; anti-Myc antibody and protein G beads; endogenous mysterin detected by immunoblot.

These are yes or no findings as the source states them, for the method shown. In cells and extracts the contact can be indirect. Some binding calls cover weakened binding; strength is not graded here. For some assays here: Tags and fused reporters may be left off the sequences shown.

With “mysterin (moyamoya steno-occlusive disease-associated AAA+ and RING finger protein), endogenous (from UniProt Q63HN8 1-5207)”, the binding entry was “binds” in test [1]; “no binding” with USP15L ΔC2-3FLAG (human); “no binding” with USP15L ΔC1-3FLAG (human); “no binding” in the test with USP15L ΔN1-3FLAG (human); “no binding” with USP15L ΔN2-3FLAG (human); “no binding” with USP15L ΔN3-3FLAG (human). Moreover, the binding result in test [2] and in test [3] was “binds” throughout.
